The other results are listed elsewhere or left out. The list includes weakly bound sequences.

This assay concerns the target T1, MBP-FoxP3dN (UniProt Q99JB6).
T1 sequence: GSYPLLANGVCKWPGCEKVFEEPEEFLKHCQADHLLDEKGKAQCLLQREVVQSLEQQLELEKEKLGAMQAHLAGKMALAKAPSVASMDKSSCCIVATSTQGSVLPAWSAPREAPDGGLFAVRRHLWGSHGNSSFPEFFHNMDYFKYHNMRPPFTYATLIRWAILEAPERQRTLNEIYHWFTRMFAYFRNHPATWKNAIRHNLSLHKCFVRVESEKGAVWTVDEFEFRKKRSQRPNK
Kind of assay: PD-seq (MBP pull-down with sequencing). The note with it: 20 mM Tris-HCl pH 7.5, 100 mM NaCl, 1.5 mM MgCl2, 0.4 uM protein, 0.1 uM dsDNA library, 30 min, room temperature, amylose pull-down; high values mean tight binding; double strand, one strand shown.
In the case of “GATGATTGTTCTCCCAGCTGATGAATTGATCAGATCGAGTAAACAAATTTTCCTAATCTTTCTGTTCAAGCGCCATCTAC”, the binding signal (RPM ratio (pull-down/input)) came out at 0.224. For the sequence “GATGATTGTTCTCCCAGCTGATGAATTCTGTATGTCGAGTAAACAAATTTTCCTAATCTTTCTGTTCAAGCGCCATCTAC”, the binding signal (RPM ratio (pull-down/input)) came to 4.95. In the case of “GATGATTGTTCTCCCAGCTGATGAATTTGCGAATTCGAGTAAACAAATTTTCCTAATCTTTCTGTTCAAGCGCCATCTAC” it was 1.18; in that of “GATGATTGTTCTCCCAGCTGATGAATTTAATTCGTCGAGTAAACAAATTTTCCTAATCTTTCTGTTCAAGCGCCATCTAC”, 0.849; in that of “GATGATTGTTCTCCCAGCTGATGAATTAGTCCTGTCGAGTAAACAAATTTTCCTAATCTTTCTGTTCAAGCGCCATCTAC”, 0.536. For “GATGATTGTTCTCCCAGCTGATGAATTACTACTGTCGAGTAAACAAATTTTCCTAATCTTTCTGTTCAAGCGCCATCTAC”, the binding signal (RPM ratio (pull-down/input)) was 0.433.

Take “GATGATTGTTCTCCCAGCTGATGAATTGTTTATATCGAGTAAACAAATTTTCCTAATCTTTCTGTTCAAGCGCCATCTAC”: the binding signal (RPM ratio (pull-down/input)) came to 5.7. In the case of “GATGATTGTTCTCCCAGCTGATGAATTATATGGATCGAGTAAACAAATTTTCCTAATCTTTCTGTTCAAGCGCCATCTAC” it was 0.524. As for “GATGATTGTTCTCCCAGCTGATGAATTGTGAACATCGAGTAAACAAATTTTCCTAATCTTTCTGTTCAAGCGCCATCTAC”, the binding signal (RPM ratio (pull-down/input)) turned out to be 0.86. In the case of “GATGATTGTTCTCCCAGCTGATGAATTTGGTGTCTCGAGTAAACAAATTTTCCTAATCTTTCTGTTCAAGCGCCATCTAC” it was 3.42; in that of “GATGATTGTTCTCCCAGCTGATGAATTTCGGTGATCGAGTAAACAAATTTTCCTAATCTTTCTGTTCAAGCGCCATCTAC”, 0.581; in that of “GATGATTGTTCTCCCAGCTGATGAATTGGTAGTTTCGAGTAAACAAATTTTCCTAATCTTTCTGTTCAAGCGCCATCTAC”, 1.21. In the case of “GATGATTGTTCTCCCAGCTGATGAATTGCTCCAATCGAGTAAACAAATTTTCCTAATCTTTCTGTTCAAGCGCCATCTAC” it was 0.467. Turning to “GATGATTGTTCTCCCAGCTGATGAATTGGAACCCTCGAGTAAACAAATTTTCCTAATCTTTCTGTTCAAGCGCCATCTAC”, the binding signal (RPM ratio (pull-down/input)) was found to be 0.211.

“GATGATTGTTCTCCCAGCTGATGAATTCAGCCTTTCGAGTAAACAAATTTTCCTAATCTTTCTGTTCAAGCGCCATCTAC”: the binding signal (RPM ratio (pull-down/input)) was 4.58.

“GATGATTGTTCTCCCAGCTGATGAATTCGTCTTTTCGAGTAAACAAATTTTCCTAATCTTTCTGTTCAAGCGCCATCTAC”: the binding signal (RPM ratio (pull-down/input)) is 0.481. “GATGATTGTTCTCCCAGCTGATGAATTATATTGTTCGAGTAAACAAATTTTCCTAATCTTTCTGTTCAAGCGCCATCTAC”: the binding signal (RPM ratio (pull-down/input)) was determined as 5.32. On to “GATGATTGTTCTCCCAGCTGATGAATTGATAAATTCGAGTAAACAAATTTTCCTAATCTTTCTGTTCAAGCGCCATCTAC”, for which the binding signal (RPM ratio (pull-down/input)) was found to be 0.383. Turning to “GATGATTGTTCTCCCAGCTGATGAATTTTCCCAGTCGAGTAAACAAATTTTCCTAATCTTTCTGTTCAAGCGCCATCTAC”, the binding signal (RPM ratio (pull-down/input)) was 0.176. For “GATGATTGTTCTCCCAGCTGATGAATTTGGCAGATCGAGTAAACAAATTTTCCTAATCTTTCTGTTCAAGCGCCATCTAC”, the binding signal (RPM ratio (pull-down/input)) worked out at 0.404. To “GATGATTGTTCTCCCAGCTGATGAATTCTTCATATCGAGTAAACAAATTTTCCTAATCTTTCTGTTCAAGCGCCATCTAC” belongs 0.332; to “GATGATTGTTCTCCCAGCTGATGAATTTTCTGGTTCGAGTAAACAAATTTTCCTAATCTTTCTGTTCAAGCGCCATCTAC”, 0.267; to “GATGATTGTTCTCCCAGCTGATGAATTACGGCCCTCGAGTAAACAAATTTTCCTAATCTTTCTGTTCAAGCGCCATCTAC”, 0.475. To “GATGATTGTTCTCCCAGCTGATGAATTCCTGACCTCGAGTAAACAAATTTTCCTAATCTTTCTGTTCAAGCGCCATCTAC” belongs 0.191; to “GATGATTGTTCTCCCAGCTGATGAATTGATAGAATCGAGTAAACAAATTTTCCTAATCTTTCTGTTCAAGCGCCATCTAC”, 0.321. To “GATGATTGTTCTCCCAGCTGATGAATTGCCTGCCTCGAGTAAACAAATTTTCCTAATCTTTCTGTTCAAGCGCCATCTAC” belongs 0.923; to “GATGATTGTTCTCCCAGCTGATGAATTTATATCATCGAGTAAACAAATTTTCCTAATCTTTCTGTTCAAGCGCCATCTAC”, 1.52.

“GATGATTGTTCTCCCAGCTGATGAATTTTTATGATCGAGTAAACAAATTTTCCTAATCTTTCTGTTCAAGCGCCATCTAC”: the binding signal (RPM ratio (pull-down/input)) worked out at 0.344. For “GATGATTGTTCTCCCAGCTGATGAATTCGAATTGTCGAGTAAACAAATTTTCCTAATCTTTCTGTTCAAGCGCCATCTAC”, the binding signal (RPM ratio (pull-down/input)) was 0.81. With “GATGATTGTTCTCCCAGCTGATGAATTTGAGACGTCGAGTAAACAAATTTTCCTAATCTTTCTGTTCAAGCGCCATCTAC”, the binding signal (RPM ratio (pull-down/input)) stood at 0.312. As for “GATGATTGTTCTCCCAGCTGATGAATTGCACAAATCGAGTAAACAAATTTTCCTAATCTTTCTGTTCAAGCGCCATCTAC”, the binding signal (RPM ratio (pull-down/input)) stood at 0.672. “GATGATTGTTCTCCCAGCTGATGAATTCCGAGAGTCGAGTAAACAAATTTTCCTAATCTTTCTGTTCAAGCGCCATCTAC”: the binding signal (RPM ratio (pull-down/input)) came out at 0.249.

As for “GATGATTGTTCTCCCAGCTGATGAATTGTTGGAATCGAGTAAACAAATTTTCCTAATCTTTCTGTTCAAGCGCCATCTAC”, the binding signal (RPM ratio (pull-down/input)) came to 0.443. As to “GATGATTGTTCTCCCAGCTGATGAATTCATGACCTCGAGTAAACAAATTTTCCTAATCTTTCTGTTCAAGCGCCATCTAC”, the binding signal (RPM ratio (pull-down/input)) is 0.359. In the case of “GATGATTGTTCTCCCAGCTGATGAATTGCCGCGCTCGAGTAAACAAATTTTCCTAATCTTTCTGTTCAAGCGCCATCTAC” it was 0.682. In the case of “GATGATTGTTCTCCCAGCTGATGAATTGGACTCTTCGAGTAAACAAATTTTCCTAATCTTTCTGTTCAAGCGCCATCTAC”, the binding signal (RPM ratio (pull-down/input)) came to 0.423. To “GATGATTGTTCTCCCAGCTGATGAATTGAAAGATTCGAGTAAACAAATTTTCCTAATCTTTCTGTTCAAGCGCCATCTAC” belongs 0.249. As for “GATGATTGTTCTCCCAGCTGATGAATTAGACAGATCGAGTAAACAAATTTTCCTAATCTTTCTGTTCAAGCGCCATCTAC”, the binding signal (RPM ratio (pull-down/input)) amounted to 0.246. In the case of “GATGATTGTTCTCCCAGCTGATGAATTTTAATACTCGAGTAAACAAATTTTCCTAATCTTTCTGTTCAAGCGCCATCTAC” it was 0.503; in that of “GATGATTGTTCTCCCAGCTGATGAATTCAGGGCGTCGAGTAAACAAATTTTCCTAATCTTTCTGTTCAAGCGCCATCTAC”, 0.456.

The values above are taken from paper PMC12820563.
